This is an account of results in PubChem BioAssay AID1745853 (National Center for Advancing Translational Sciences (NCATS), 2022).

Each structure is given as a SMILES string. Several values for one entry are separate records, joined by “and”; a condition that tells them apart may be missing. Equal entries are not always repeated. This is one part of the list. Shown are side measurements of this screen, not its main read-out; they come without a call.

Holding throughout (assay): Primary Screen for Target Class Profiling of Small Molecule Inhibitors of Methyltransferases
The target of experiment [1] is Glycine N-methyltransferase (Homo sapiens) (UniProt Q14749). Particulars: purified enzyme, MTase-Glo SAH luminescence; measured here: GNMT inhibition; at 40 µM; stronger effect = lower value. The method in brief:
(§1)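 Each enzyme was assayed with SAM and its substrate. SAH formation detected by MTase-Glo luminescence; single-point 40 uM screen[…].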

Experiment [2] deals with Guanidinoacetate N-methyltransferase (Homo sapiens) (UniProt Q14353). Conditions: purified enzyme, MTase-Glo SAH luminescence; measured here: GAMT inhibition; at 40 µM; stronger effect = lower value. The method in brief:
as §1

For experiment [3], the target named is Histamine N-methyltransferase (Homo sapiens) (UniProt P50135). Conditions: purified enzyme, MTase-Glo SAH luminescence; measured here: HNMT inhibition; at 40 µM; stronger effect = lower value. The method in brief:
as §1

The target of experiment [4] is Nicotinamide N-methyltransferase (Homo sapiens) (UniProt P40261). Conditions: purified enzyme, MTase-Glo SAH luminescence; measured here: NNMT inhibition; at 40 µM; stronger effect = lower value. The method in brief: as §1
Experiment [5] has as its target Phenylethanolamine N-methyltransferase (Homo sapiens) (UniProt P11086). Conditions: purified enzyme, MTase-Glo SAH luminescence; measured here: PNMT inhibition; at 40 µM; stronger effect = lower value. The method in brief: as §1
On the % scale 0 is the no-effect control and ±100 the full control effect.

Regarding `COCc1cc([C@H]2N[C@@](C)(C(=O)OC)[C@H]3C(=O)N(C)C(=O)[C@@H]23)ccc1OC`, the activity change, negative = inhibition in experiment [1] is -1.79%; in experiment [2] it was -3.29%; in experiment [3], -1.93%; in experiment [4], -1.38%; in experiment [5], 1.7%.
For `O=C1CN(Cc2ccccc2F)S(=O)(=O)c2ccccc2N1Cc1ccc(Cl)cc1`, the activity change, negative = inhibition in experiment [1] is 7.34%; in experiment [2], 0.54%; in experiment [3], 3.3%; in experiment [4] it was -3.3%; in experiment [5], 3.29%.
`CCN1CCN(C(=O)c2ccc3nc(-c4cccc(C)n4)oc3c2)CC1`: the activity change, negative = inhibition is -11.7% in experiment [1]; -11.2% in experiment [2]; -7.42% in experiment [3]; -18.2% in experiment [4]; -15.3% in experiment [5].
With `CC(=O)N1c2ccc(-c3ccc(C(=O)O)cc3)cc2C(Nc2ccc(Cl)cc2)CC1C` (stereo not given), the activity change, negative = inhibition in experiment [1] is -26.6% and -1.69%; in experiment [3], -10.1% and 3.84%; in experiment [4] it was -29.6%; in experiment [5], 12.3%.
For `COc1ccc(-c2n[nH]n3c2nc(=O)c2ccc(C(=O)NCc4ccc(OC)cc4OC)cc23)cc1`, the activity change, negative = inhibition in experiment [1] is -13.2%; in experiment [2], 3.74%; in experiment [3] it was -1.51%; in experiment [4] it was -3.56%; in experiment [5], -2.14%.
`CCOC(=O)CC1(NC(=O)N2Cc3c(sc4c3CCCC4)-n3cccc3C2CC)CCCCC1` (stereo not given): the activity change, negative = inhibition was -8.98% in experiment [1]; 0% in experiment [2]; 5.95% in experiment [3]; -7.14% in experiment [4]; -13.4% in experiment [5].
In the same order, the values of `C=CCN1CCc2c(cc(O)c(O)c2Cl)C(c2ccccc2)C1` (stereo not given) are -39.7%, -0.537%, -24.4%, -14.1% and -0.068%.
For `CSc1cccc(NS(=O)(=O)c2ccc3[nH]c4c(c3c2)CCCC4)c1`, in that order: 1.99%, 1.54%, 1.75%, -9.43% and 2.25%.
For `O=C(O)C[C@H](O)C[C@H](O)/C=C/c1c(C2CC2)nc2ccccc2c1-c1ccc(F)cc1`, in that order: -13.3%, 6.84%, 7%, -33.6% and 5.92%.
Turning to `CCOC(=O)c1cc2n(n1)CC(C)(C(=O)NCc1ccccc1)N(Cc1cccc(CC)c1)C2=O` (stereo not given), the activity change, negative = inhibition is -1.68% in experiment [1]; 0.867% in experiment [2]; 0.937% in experiment [3]; 9.88% in experiment [4]; -1.65% in experiment [5].
In the same order, the values of `CC1=C(C(=O)O)N2C(=O)[C@@H](NC(=O)C(N)C3=CCC=CC3)[C@H]2SC1` (stereo not given in full) are -14.1%, 7.92%, 2.35%, -0.033% and 8.32%.
For `O=C(Cn1nc2n(Cc3ccccc3)c(=O)c3ccccc3n2c1=O)NC1CCCCC1`, the activity change, negative = inhibition in experiment [1] was 5.8%; in experiment [2], 1.25%; in experiment [3], 4.76%; in experiment [4], -0.225%; in experiment [5], 5.04%.
As for `CC(CNC(=O)Cn1ccc2cc(S(=O)(=O)N3CCCC3)ccc21)c1ccccc1` (stereo not given), the activity change, negative = inhibition in experiment [1] is -0.14%; in experiment [2] it was 1.71%; in experiment [3], -6.94%; in experiment [4] it was -4.42%; in experiment [5], -18%.
Regarding `Cc1noc(CN(C)c2ncnc3ccc(-c4ccc5c(c4)OCO5)cc23)n1`, the activity change, negative = inhibition in experiment [2] was -22.7%; in experiment [4] it was -47.6%; in experiment [5], -49%.
With `COc1ccc(OC)c(CCNC(=O)CCc2nnc3n(Cc4ccccc4Cl)c(=O)c4ccccc4n23)c1`, the activity change, negative = inhibition is -3.98% in experiment [1]; 3.91% in experiment [2]; 1.73% in experiment [3]; -5.68% in experiment [4]; -2.51% in experiment [5].
In the same order, the values of `C=C1/C(=C/C=C2\CCC[C@]3(C)[C@@H]([C@@H](C)OCCC(O)(CC)CC)CC[C@@H]23)C[C@@H](O)C[C@@H]1O` are -6.04%, 8.47%, 3.52%, -11.8% and -0.626%.
For `Cc1cc(C)cc(Nc2nc(C)cc(=O)n2CC(=O)Nc2cccc(C(F)(F)F)c2)c1`, in that order: -11.2%, -1.67%, 0.621%, -3.33% and -2.92%.
Turning to `CCc1cc2c(cc3n2CC(C)(C(=O)NC2CCCCC2)N(CCCN2CCCCC2C)C3=O)s1` (stereo not given), the activity change, negative = inhibition in experiment [1] was 5.13%; in experiment [2], -0.307%; in experiment [3], 4.75%; in experiment [4], 14.4%; in experiment [5], 4.1%.
Consider `CSc1nc(N)cc(Oc2ccc(-c3nc(Nc4cccc(C(F)(F)F)c4)n[nH]3)cc2)n1`, for which the activity change, negative = inhibition was 11.7% in experiment [2], -18% in experiment [4] and 1.57% in experiment [5].
`COC(C)c1nc(C2CCOCC2)nn1Cc1ccc2c(c1)OCO2` (stereo not given): the activity change, negative = inhibition in experiment [1] is -6.18%; in experiment [2] it was -8.05%; in experiment [3], -4.02%; in experiment [4], -6.73%; in experiment [5], -9.53%.
In the same order, the values of `Oc1ccc(C2CNCc3sccc32)cc1O` (stereo not given) are -75.9%, 4.71%, -19.6%, -5.56% and 5.81%.
For `COc1ccc(-c2nc3c(c(=O)[nH]2)CCN(C(=O)c2ccccc2)C3)cc1`, in that order: -8.08%, -7.54%, -2.42%, -12.7% and -7.36%.
In the same order, the values of `CCN1C(=O)c2cc3ccccc3n2CC1(C)C(=O)NCC(=O)NCc1ccccc1C` (stereo not given) are -8.89%, 2.29%, -4.22%, -8.82% and -9.25%.
As to `COc1ccc(Cl)cc1S(=O)(=O)NC1COc2c(cccc2OC)C1` (stereo not given), the activity change, negative = inhibition in experiment [1] is -4.82%; in experiment [2] it was 3.47%; in experiment [3] it was 4.83%; in experiment [4] it was -1.15%; in experiment [5] it was 0.435%.
In the case of `Cc1noc(C)c1[S+](=O)([O-])N1CCn2c(nn(-c3ccc(C(F)(F)F)cc3)c2=O)C1`, the activity change, negative = inhibition in experiment [1] is -5.8%; in experiment [2], -4.36%; in experiment [3], -1.38%; in experiment [4], -6.9%; in experiment [5], -54.8%.
In the same order, the values of `Cn1nc(C(=O)N2CCC3(CC2)CC(Cc2nc(C4CC4)no2)CCO3)c2ccccc21` (stereo not given) are -5.53%, 3.56%, -0.69%, 0.317% and 14.4%.
For the compound `CCCCN1C(=O)c2cc(C(=O)Nc3ccc(C(C)C)cc3)nn2CC1(C)C(=O)NC1CCCC1` (stereo not given), the activity change, negative = inhibition in experiment [1] is -0.744%; in experiment [2], 4.91%; in experiment [3], -7.68%; in experiment [4] it was -2.23%; in experiment [5] it was 0.494%.
For `C/C=C/C=C/C=C/C(=O)N(C)C(C(=O)NC(C)C(=O)N1CCCC1C(N)=O)C(C)C` (stereo not given), in that order: 0%, 5.68%, 9.64%, -4.83% and -4.77%.
